Experimental data taken from US20250154219A1, “PEPTIDE ANALOGS” (Adepthera LLC, priority 2017, published 2025).

Key:
[1] = molecular target: CLR/RAMP1 receptor (Homo sapiens, UniProt O60894+Q16602); experiment: CLR/RAMP1 cAMP assay, antagonist mode (CGRP-stimulated); assay type: cell-based; conditions: for CLR/RAMP1 Max Activity % of positive control (antagonist): antagonist mode
[2] = molecular target: CLR/RAMP2 receptor (Homo sapiens, UniProt O60895+Q16602); experiment: CLR/RAMP2 arrestin assay, antagonist mode (ADM-stimulated); assay type: cell-based; conditions: for CLR/RAMP2 Max Activity % of positive control (antagonist): antagonist mode
Chain of CLR/RAMP2 receptor (Q16602 23-461): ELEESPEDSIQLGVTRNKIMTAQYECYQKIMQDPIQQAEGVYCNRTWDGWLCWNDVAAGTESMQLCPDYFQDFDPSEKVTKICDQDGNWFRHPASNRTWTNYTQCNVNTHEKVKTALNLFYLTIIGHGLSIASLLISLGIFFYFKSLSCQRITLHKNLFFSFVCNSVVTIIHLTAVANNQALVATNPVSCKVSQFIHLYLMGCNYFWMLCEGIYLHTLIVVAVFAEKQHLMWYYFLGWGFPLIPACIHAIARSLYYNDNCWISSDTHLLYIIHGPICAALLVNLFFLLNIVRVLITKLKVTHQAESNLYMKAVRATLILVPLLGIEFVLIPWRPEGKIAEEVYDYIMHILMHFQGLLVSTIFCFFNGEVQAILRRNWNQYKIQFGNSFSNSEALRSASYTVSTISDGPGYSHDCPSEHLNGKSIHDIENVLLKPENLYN
Chain of CLR/RAMP2 receptor (O60895 43-175): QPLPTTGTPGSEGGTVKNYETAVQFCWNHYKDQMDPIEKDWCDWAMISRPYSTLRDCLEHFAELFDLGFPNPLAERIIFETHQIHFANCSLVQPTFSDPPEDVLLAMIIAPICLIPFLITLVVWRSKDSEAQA

Chain of CLR/RAMP1 receptor (Q16602 23-461): as the sequence (Q16602 23-461) above
Chain of CLR/RAMP1 receptor (O60894 27-148): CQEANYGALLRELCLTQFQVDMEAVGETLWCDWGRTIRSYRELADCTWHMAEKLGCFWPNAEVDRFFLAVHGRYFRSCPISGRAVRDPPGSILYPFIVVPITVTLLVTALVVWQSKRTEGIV

| Structure (SMILES) | antagonistic activity toward CLR/RAMP1 and/or CLR/RAMP2, in words ([1]; CLR/RAMP1 and/or CLR/RAMP2) | CLR/RAMP1 Max Activity % of positive control (antagonist) [1] | CLR/RAMP2 Max Activity % of positive control (antagonist) [2] | IC50 [2] |
| --- | --- | --- | --- | --- |
| CC[C@H](C)[C@H](NC(=O)[C@H](CCC(N)=O)NC(=O)[C@H](Cc1c[nH]cn1)NC(=O)[C@H](C)NC(=O)[C@H](CC(C)C)NC(=O)[C@H](CCCCN)NC(=O)[C@H](CCC(N)=O)NC(=O)[C@@H](NC(=O)[C@@H](NC(C)=O)[C@@H](C)O)C(C)C)C(=O)N[C@@H](Cc1ccc(O)cc1)C(=O)N[C@@H](CCC(N)=O)C(=O)N[C@@H](Cc1ccccc1)C(=O)N[C@H](C(=O)N[C@@H](CC(=O)O)C(=O)N[C@@H](CCCCN)C(=O)N[C@@H](CC(=O)O)C(=O)N[C@@H](CCCCN)C(=O)N[C@@H](CC(=O)O)C(=O)N[C@@H](CC(N)=O)C(=O)N[C@@H](CO)C(=O)N[C@@H](C)C(=O)N1CCC[C@H]1C(=O)N[C@H](C(=O)N[C@@H](CC(=O)O)C(=O)N1CCC[C@H]1C(=O)N[C@@H](CO)C(=O)N[C@@H](CO)C(=O)N1CCC[C@H]1C(=O)N[C@@H](Cc1c[nH]cn1)C(=O)N[C@@H](CO)C(=O)N[C@@H](Cc1ccc(O)cc1)C(N)=O)C(C)C)[C@@H](C)O [SEQ ID NO: 76] | only mildly improved antagonistic activity | 106 % of positive control | 101 % of positive control | – |
| CCCCCCCCCCCCCCCC(=O)N[C@H](C(=O)N[C@H](C(=O)N[C@@H](CCC(N)=O)C(=O)N[C@@H](CCCCN)C(=O)N[C@@H](CC(C)C)C(=O)N[C@@H](C)C(=O)N[C@@H](Cc1c[nH]cn1)C(=O)N[C@@H](CCC(N)=O)C(=O)N[C@H](C(=O)N[C@@H](Cc1ccc(O)cc1)C(=O)N[C@@H](CCC(N)=O)C(=O)N[C@@H](Cc1ccccc1)C(=O)N[C@H](C(=O)N[C@@H](CC(=O)O)C(=O)N[C@@H](CCCCN)C(=O)N[C@@H](CC(=O)O)C(=O)N[C@@H](CCCCN)C(=O)N[C@@H](CC(=O)O)C(=O)N[C@@H](CC(N)=O)C(=O)N[C@@H](CO)C(=O)N[C@@H](C)C(=O)N1CCC[C@H]1C(=O)N[C@H](C(=O)N[C@@H](CC(=O)O)C(=O)N1CCC[C@H]1C(=O)N[C@@H](CO)C(=O)N[C@@H](CO)C(=O)N1CCC[C@H]1C(=O)N[C@@H](Cc1c[nH]cn1)C(=O)N[C@@H](CO)C(=O)N[C@@H](Cc1ccc(O)cc1)C(N)=O)C(C)C)[C@@H](C)O)[C@@H](C)CC)C(C)C)[C@@H](C)O [SEQ ID NO: 77] | – | 101 % of positive control | 100 % of positive control | – |
| CCCCCCCCCCCCCCCC(=O)N[C@@H](CCCCN)C(=O)N[C@H](C(=O)N[C@@H](CCC(N)=O)C(=O)N[C@@H](CCCCN)C(=O)N[C@@H](CC(C)C)C(=O)N[C@@H](CO)C(=O)N[C@@H](C)C(=O)N1CCC[C@H]1C(=O)N[C@H](C(=O)N[C@@H](CC(=O)O)C(=O)N1CCC[C@H]1C(=O)N[C@@H](CO)C(=O)N[C@@H](CO)C(=O)N1CCC[C@H]1C(=O)N[C@@H](Cc1c[nH]cn1)C(=O)N[C@@H](CO)C(=O)N[C@@H](Cc1ccc(O)cc1)C(N)=O)C(C)C)C(C)C [SEQ ID NO: 139] | – | – | 101 % of positive control | – |
| CCCCCCCCCCCCCCCC(=O)N[C@@H](CCCCN)C(=O)N[C@H](C(=O)N[C@@H](CCC(N)=O)C(=O)N[C@@H](CC(N)=O)C(=O)N[C@@H](CC(C)C)C(=O)N[C@@H](CO)C(=O)N[C@@H](C)C(=O)N1CCC[C@H]1C(=O)N[C@H](C(=O)N[C@@H](CC(=O)O)C(=O)N1CCC[C@H]1C(=O)N[C@@H](CO)C(=O)N[C@@H](CO)C(=O)N1CCC[C@H]1C(=O)N[C@@H](Cc1c[nH]cn1)C(=O)N[C@@H](CO)C(=O)N[C@@H](Cc1ccc(O)cc1)C(N)=O)C(C)C)C(C)C [SEQ ID NO: 141] | – | – | – | > 10 µM |
